{"source": "paper PMC4336329", "about": "(PLoS ONE, 2015)", "note": "Among all 310,000 compounds or so, about 2,200 (0.71%) showed an effect of 50% or more. The effect is printed as a negative number. This is one part of the list.", "data": [{"target": "human ether-à-go-go-related gene (hERG) potassium channel (human, UniProt Q12809)", "sequence (Q12809 whole entry, looked up)": "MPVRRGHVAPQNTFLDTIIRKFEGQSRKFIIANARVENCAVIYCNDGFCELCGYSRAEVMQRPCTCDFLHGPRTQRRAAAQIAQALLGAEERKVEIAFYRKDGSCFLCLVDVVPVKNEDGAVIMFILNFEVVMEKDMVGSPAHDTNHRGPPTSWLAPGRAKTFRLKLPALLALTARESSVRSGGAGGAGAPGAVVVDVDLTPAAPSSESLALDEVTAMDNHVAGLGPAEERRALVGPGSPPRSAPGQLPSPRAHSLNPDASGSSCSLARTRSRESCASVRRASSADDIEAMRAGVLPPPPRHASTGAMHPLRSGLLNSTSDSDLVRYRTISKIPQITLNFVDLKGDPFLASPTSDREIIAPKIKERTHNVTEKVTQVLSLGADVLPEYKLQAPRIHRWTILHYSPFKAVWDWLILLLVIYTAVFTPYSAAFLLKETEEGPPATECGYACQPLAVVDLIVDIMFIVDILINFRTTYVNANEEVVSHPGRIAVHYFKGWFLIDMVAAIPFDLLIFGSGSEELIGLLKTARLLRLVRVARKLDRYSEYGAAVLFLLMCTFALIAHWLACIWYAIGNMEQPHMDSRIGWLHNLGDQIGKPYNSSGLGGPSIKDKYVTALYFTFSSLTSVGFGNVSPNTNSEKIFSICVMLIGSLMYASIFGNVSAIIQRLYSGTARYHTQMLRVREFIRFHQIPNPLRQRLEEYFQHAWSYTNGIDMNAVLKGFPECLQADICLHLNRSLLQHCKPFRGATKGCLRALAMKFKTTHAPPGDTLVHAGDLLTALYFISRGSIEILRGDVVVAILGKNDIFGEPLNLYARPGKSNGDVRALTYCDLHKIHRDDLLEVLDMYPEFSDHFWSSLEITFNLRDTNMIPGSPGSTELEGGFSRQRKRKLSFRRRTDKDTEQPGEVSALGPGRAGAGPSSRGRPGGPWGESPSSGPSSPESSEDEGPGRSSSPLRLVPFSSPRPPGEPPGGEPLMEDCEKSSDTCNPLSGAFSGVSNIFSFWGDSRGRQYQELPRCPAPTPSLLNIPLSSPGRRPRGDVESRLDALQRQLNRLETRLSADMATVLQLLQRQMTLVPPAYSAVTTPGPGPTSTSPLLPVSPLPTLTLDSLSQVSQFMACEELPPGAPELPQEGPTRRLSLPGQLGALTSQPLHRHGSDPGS", "experiment": "primary screen, population patch clamp on CHO cells stably expressing hERG", "units": {"hERG current change (%, negative = inhibition) at 1uM": "%"}, "values": [{"smiles": "COc1ccc(Cc2[nH]n3c(=O)cc(C)nc3c2-c2ccccc2)cc1", "hERG current change (%, negative = inhibition) at 1uM": 14.3}, {"smiles": "COc1ccc(N2C(C)=CS/C2=C(/C#N)c2nnc(N3CCOCC3)n2-c2ccccc2)cc1", "hERG current change (%, negative = inhibition) at 1uM": 4.17}, {"smiles": "Cc1c(C(=O)N2CC3(CC(c4cccc(NC(=O)[C@H]5CCC(=O)N5)c4)=NO3)C[C@@H]2C(N)=O)cc([N+](=O)[O-])cc1[N+](=O)[O-]", "note": "(some centres unmarked)", "hERG current change (%, negative = inhibition) at 1uM": 9.97}, {"smiles": "O=C1NCCC/C1=N\\Nc1ccc(Br)cc1", "hERG current change (%, negative = inhibition) at 1uM": 16.4}, {"smiles": "COC(=O)Nc1cc([N+](=O)[O-])ccc1OC", "hERG current change (%, negative = inhibition) at 1uM": 22.4}, {"smiles": "CCOc1ccccc1C(=O)NCCNC(=O)c1ccccc1OCC", "hERG current change (%, negative = inhibition) at 1uM": 12}, {"smiles": "Cc1cc(C)n2c(SCC(=O)Nc3c(C)n(C)n(-c4ccccc4)c3=O)nnc2n1", "hERG current change (%, negative = inhibition) at 1uM": 1.38}, {"smiles": "Cc1ccc(-c2cc(C(=O)Nc3ccccn3)c3ccccc3n2)o1", "hERG current change (%, negative = inhibition) at 1uM": 6.73}, {"smiles": "CCCCNc1ccc(C(CC(N)=O)NC(=O)Cc2ccc(Br)cc2)cc1[N+](=O)[O-]", "note": "(centres unmarked)", "hERG current change (%, negative = inhibition) at 1uM": 5.02}, {"smiles": "COCCCNC(=O)c1c(N)n(/N=C/c2cccs2)c2nc3ccccc3nc12", "hERG current change (%, negative = inhibition) at 1uM": 11.2}, {"smiles": "O=C(Cc1ccc(Cl)cc1)NNS(=O)(=O)c1ccc([N+](=O)[O-])cc1", "hERG current change (%, negative = inhibition) at 1uM": 10.7}, {"smiles": "O=c1cc(N2CCN(c3ccccc3)CC2)[nH]c(=O)n1-c1ccccc1Cl", "hERG current change (%, negative = inhibition) at 1uM": 0.685}, {"smiles": "COc1cc(C(c2sc3nc(C)nn3c2O)N2CCc3ccccc3C2)cc(OC)c1OC", "note": "(centres unmarked)", "hERG current change (%, negative = inhibition) at 1uM": 9.9}, {"smiles": "O=C(Nc1ccccc1N1CCN(C(=O)c2ccc(Cl)cc2)CC1)c1cc(Br)ccc1Cl", "hERG current change (%, negative = inhibition) at 1uM": -5.44}, {"smiles": "CC(=O)OCCOc1nc(N(C)C)nc(N(C)C)n1", "hERG current change (%, negative = inhibition) at 1uM": 7.05}, {"smiles": "O=c1c2ccccc2sn1-c1ccccc1", "hERG current change (%, negative = inhibition) at 1uM": 12.5}, {"smiles": "Cc1ccc(N(CC(=O)NC2CC3CCC2C3)S(C)(=O)=O)cc1C", "note": "(centres unmarked)", "hERG current change (%, negative = inhibition) at 1uM": 1.45}, {"smiles": "CCOC(=O)CC(N)c1ccc(OC)cc1.Cl", "note": "(centres unmarked)", "hERG current change (%, negative = inhibition) at 1uM": 8.64}, {"smiles": "COc1ccc(OC)c(S(=O)(=O)N2CCCC(C(=O)N3CCCC3)C2)c1", "note": "(centres unmarked)", "hERG current change (%, negative = inhibition) at 1uM": 3.69}, {"smiles": "CCOc1ccc(OCC)c(S(=O)(=O)N2CCCCC2C)c1", "note": "(centres unmarked)", "hERG current change (%, negative = inhibition) at 1uM": -26.7}, {"smiles": "COC(=O)/C(C(C)=O)=C(\\C=C\\N(C)C)N(C)C", "hERG current change (%, negative = inhibition) at 1uM": 10.5}, {"smiles": "CC(=O)Nc1cccc(NC(=O)CS(=O)(=O)c2cn(CC(=O)N3CCOCC3)c3ccccc23)c1", "hERG current change (%, negative = inhibition) at 1uM": 1.89}, {"smiles": "O=c1[nH]c(CN2CCN(C/C=C/c3ccccc3)CC2)nc2cc(Cl)ccc12", "hERG current change (%, negative = inhibition) at 1uM": -108}, {"smiles": "CC(Sc1nnc(COc2ccc(Cl)cc2)n1-c1ccccc1)C(=O)O", "note": "(centres unmarked)", "hERG current change (%, negative = inhibition) at 1uM": 6.25}, {"smiles": "COc1ccc(/C=C/C(=O)OCC(=O)NCC2CCCO2)cc1", "note": "(centres unmarked)", "hERG current change (%, negative = inhibition) at 1uM": 8.2}, {"smiles": "COc1ccc(N(CC(=O)N/N=C/c2ccco2)S(=O)(=O)c2ccccc2)cc1", "hERG current change (%, negative = inhibition) at 1uM": 0.535}, {"smiles": "COCCNC(=S)NCCc1ccc(Cl)cc1Cl", "hERG current change (%, negative = inhibition) at 1uM": 13.7}, {"smiles": "CN(C)CCCNC(=S)N1CCN(c2nc(-c3ccccc3)cs2)CC1", "hERG current change (%, negative = inhibition) at 1uM": 6.05}, {"smiles": "COc1cccc2c1OCC(CN1CCN(CCC(C)C)C(CCO)C1)=C2", "note": "(centres unmarked)", "hERG current change (%, negative = inhibition) at 1uM": 10.2}, {"smiles": "O=C(NCCCN1CCOCC1)c1cc2ccccc2cc1O", "hERG current change (%, negative = inhibition) at 1uM": 12.4}, {"smiles": "FC(F)(F)c1nnc2n1N=C(c1cccs1)CS2", "hERG current change (%, negative = inhibition) at 1uM": 2.96}, {"smiles": "CC(Oc1cccc(Br)c1)C(=O)NNC(=O)CCNC(=O)c1ccccc1Cl", "note": "(centres unmarked)", "hERG current change (%, negative = inhibition) at 1uM": 6.78}, {"smiles": "CCN(CC(=O)NCc1ccc(Cl)cc1)C(=O)C(C)Sc1ccccc1", "note": "(centres unmarked)", "hERG current change (%, negative = inhibition) at 1uM": 1.51}, {"smiles": "CC1=C(C)CS(=O)N(c2ccc(S(N)(=O)=O)cc2)C1", "note": "(centres unmarked)", "hERG current change (%, negative = inhibition) at 1uM": 5.7}, {"smiles": "CC1CCCCC1NS(=O)(=O)c1ccc2c(c1)CC(=O)N2C", "note": "(centres unmarked)", "hERG current change (%, negative = inhibition) at 1uM": 15.6}, {"smiles": "COCCOC(=O)c1[nH]c2c(c1C)C(=O)CC(c1ccc(OC)c(OC)c1)C2", "note": "(centres unmarked)", "hERG current change (%, negative = inhibition) at 1uM": 6.85}, {"smiles": "CCS(=O)(=O)Nc1cccc(-c2nc3cccnc3s2)c1", "hERG current change (%, negative = inhibition) at 1uM": -5.44}, {"smiles": "COc1ccc(NC(=O)Nc2cc(C(C)(C)C)on2)cc1OC", "hERG current change (%, negative = inhibition) at 1uM": 6.45}, {"smiles": "COc1cc(-c2nnc(SCC(=O)N3c4ccccc4Sc4ccccc43)o2)cc(OC)c1OC", "hERG current change (%, negative = inhibition) at 1uM": 12.2}, {"smiles": "CN(C(=O)CSc1nnc(-c2ccco2)n1N)C1CCCCC1", "hERG current change (%, negative = inhibition) at 1uM": 1.29}, {"smiles": "Cc1cc(NC(=O)CSc2nc3c(c(=O)n2-c2ccc(Br)cc2)SCC3)no1", "hERG current change (%, negative = inhibition) at 1uM": 6.41}, {"smiles": "O=C(c1ccc(=O)[nH]c1)N1CCN(S(=O)(=O)c2cc(C(F)(F)F)ccc2Cl)CC1", "hERG current change (%, negative = inhibition) at 1uM": 4.55}, {"smiles": "C/C(=N\\NC(=O)CN1CCN(Cc2ccc(C)cc2)CC1)c1ccncc1", "hERG current change (%, negative = inhibition) at 1uM": -77.9}, {"smiles": "Cc1ccc2cc(CCNC(=O)c3ccc(Br)o3)c(=O)[nH]c2c1", "hERG current change (%, negative = inhibition) at 1uM": 0.341}]}]}
